According to publication PMC6123813 (Communications biology, 2018):

Assays:
[1] = target: the molecule itself; assay: FRET or BRET; FSI-FRET (two-photon spectral imaging) between EphA2-mTurq and EphA2-eYFP in the plasma membrane of live HEK293T cells in hypo-osmotic medium; no ligand; dimer to monomers, two-dimensional constants in receptors per μm^2
[2] = target: the molecule itself; assay: FRET or BRET; FSI-FRET between EphA2-mTurq and EphA2-eYFP in the plasma membrane of live HEK293T cells in hypo-osmotic medium; with 5 μg per ml (~50 nM) ephrinA1-Fc; also at donor to acceptor ratios 3:1, 1:1, 1:3

Row | Protein | stoichiometry N [1] | stoichiometry N [2]
1 | EphA2 receptor, wild-type, full-length, tagged at the C-terminus with mTurquoise or eYFP (receptor) [sequence of about 500 residues omitted]IGGVAVGVVLLLVLAGVGFFIHRRRKNQRARQSPEDVYFSKSEQLKPLKTYVDPHTYEDPNQAVLKFTTEIHPSCVTRQKVIGAGEFGEVYKGMLKTSSGKKEVPVAIKTLKAGYTEKQRVDFLGEAGIMGQFSHHNIIRLEGVISKYKPMMIITEYMENGALDKFLREKDGEFSVLQLVGMLRGIAAGMKYLANMNYVHRDLAARNILVNSNLVCKVSDFGLSRVLEDDPEATYTTSGGKIPIRWTAPEAISYRKFTSASDVWSFGIVMWEVMTYGERPYWELSNHEVMKAINDGFRLPTPMDCPSAIYQLMMQCWQQERARRPKFADIVSILDKLIRAPDSLKTLADFDPRVSIRLPSTSGSEGVPFRTVSEWLESIKMQQYTEHFMAAGYTAIEKVVQMTNDDIKRIGVRLPGHQKRIAYSLLGLKDQVNTVGIPI | 2 | > 2
2 | EphA2 G131Y mutant, full-length, tagged at the C-terminus with mTurquoise or eYFP (receptor, UniProt P29317 24-976, looked up) [sequence of about 500 residues with changes omitted]IGGVAVGVVLLLVLAGVGFFIHRRRKNQRARQSPEDVYFSKSEQLKPLKTYVDPHTYEDPNQAVLKFTTEIHPSCVTRQKVIGAGEFGEVYKGMLKTSSGKKEVPVAIKTLKAGYTEKQRVDFLGEAGIMGQFSHHNIIRLEGVISKYKPMMIITEYMENGALDKFLREKDGEFSVLQLVGMLRGIAAGMKYLANMNYVHRDLAARNILVNSNLVCKVSDFGLSRVLEDDPEATYTTSGGKIPIRWTAPEAISYRKFTSASDVWSFGIVMWEVMTYGERPYWELSNHEVMKAINDGFRLPTPMDCPSAIYQLMMQCWQQERARRPKFADIVSILDKLIRAPDSLKTLADFDPRVSIRLPSTSGSEGVPFRTVSEWLESIKMQQYTEHFMAAGYTAIEKVVQMTNDDIKRIGVRLPGHQKRIAYSLLGLKDQVNTVGIPI | 2 | 
3 | EphA2 R103E mutant, full-length, tagged at the C-terminus with mTurquoise or eYFP (receptor, UniProt P29317 24-976, looked up) [sequence of about 500 residues with changes omitted]IGGVAVGVVLLLVLAGVGFFIHRRRKNQRARQSPEDVYFSKSEQLKPLKTYVDPHTYEDPNQAVLKFTTEIHPSCVTRQKVIGAGEFGEVYKGMLKTSSGKKEVPVAIKTLKAGYTEKQRVDFLGEAGIMGQFSHHNIIRLEGVISKYKPMMIITEYMENGALDKFLREKDGEFSVLQLVGMLRGIAAGMKYLANMNYVHRDLAARNILVNSNLVCKVSDFGLSRVLEDDPEATYTTSGGKIPIRWTAPEAISYRKFTSASDVWSFGIVMWEVMTYGERPYWELSNHEVMKAINDGFRLPTPMDCPSAIYQLMMQCWQQERARRPKFADIVSILDKLIRAPDSLKTLADFDPRVSIRLPSTSGSEGVPFRTVSEWLESIKMQQYTEHFMAAGYTAIEKVVQMTNDDIKRIGVRLPGHQKRIAYSLLGLKDQVNTVGIPI | 2 | 
